Experimental data: PubChem BioAssay AID686978 (National Center for Advancing Translational Sciences (NCATS), 2013)
Out of some 420,000 compounds screened, about 64,000 (15%) were called active. The shares of active, inactive and inconclusive entries below differ from those in the screen. The call rests on the fitted dose curve; in most records, active means well fitted inhibition curve with a large enough effect; inconclusive means small, poorly fitted or top-dose-only effect; inactive means flat fitted curve, though single readings scatter. Potencies of inconclusive entries are left out as doubtful fits. Some structures have more than one record in an assay (separate samples or runs), and their calls can disagree.

Experiment: qHTS for Inhibitors of human tyrosyl-DNA phosphodiesterase 1 (TDP1): qHTS in cells in absence of CPT; further: nearly all actives have a fitted effect of over 55% in size
Conditions: DT40 Tdp1-/- hTDP1 cells, no CPT, ATP luminescence, 48 h; activity change, negative = growth inhibition: at 46.2 µM (top of the series) unless noted
Summary of the method: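 Compound effects on proliferation are scored in DT40 Tdp1-/-;hTDP1 cells in the absence of CPT. ATP levels (CellTiter-Glo luminescence) are recorded after a ≥48 hr, 37 °C incubation.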
On the % scale 0 is the no-effect control and ±100 the full control effect; potency means the concentration at half of the fitted maximal effect; tags describe the fitted curve by direction and shape.

SMILES | Potency | activity change, negative = growth inhibition
Cc1cccc(N2CCN(C(=O)c3cccc(N4C(=O)C5CC=CC(C)C5C4=O)c3)CC2)c1C (configuration not stated) | active: 23.1 µM | –
CC(C)Cc1nc(N2CCN(C(=O)C(C)C)CC2)c(C#N)c2c1CCC2 | inconclusive [inhibitor, single point] | –
Cn1c(=O)c(=O)n(C)c2cc(N3CCOCC3)c(NS(=O)(=O)c3ccc([N+](=O)[O-])cc3)cc21 | – | inactive: 21.3%
Cc1ccc(C(=O)NCCNS(=O)(=O)c2ccccc2)cc1 | inconclusive [inhibitor, single point] | –
CS(=O)(=O)Nc1cccc(-c2ccc3ncnc(Nc4ccc(F)cc4)c3c2)c1 | inconclusive [inhibitor, partial curve] | –
CCOC(=O)N1CCN(CC(=O)c2ccc3c(c2)CCN3)CC1 | – | inactive: -13.7%
Cc1ccc(CNC(=O)c2cc(S(=O)(=O)N3CCCC(C)C3)cn2C)cc1 (configuration not stated) | inconclusive [inhibitor, partial curve, poor fit] | –
Cc1sc(C2C(C#N)=C(N)N(c3cccc(Cl)c3)C3=C2C(=O)CCC3)cc1CN1CCOCC1 (configuration not stated) | inconclusive [inhibitor, single point] | –
O=C(CN1CCc2ccccc21)NN1CC(=O)N(c2ccccc2)CC1=O | – | inactive: -15.8%
O=C(Nc1ccccc1)C1CC2CCC1C2 (configuration not stated) | – | inactive: 14.6%
Cc1ccc(NC(=O)CCC(=O)NNC(=O)c2ccccc2[N+](=O)[O-])c(C)c1 | – | inactive: -16.2%
O=C(NCc1ccccc1Cl)c1ccc2sc([C@H]3C[C@H](O)[C@@H](CO)O3)nc2c1 | inconclusive [inhibitor, partial curve, poor fit] | –
O=C(Nc1ccccc1C(=O)O)c1ccc2ccccc2n1 | inconclusive [inhibitor, partial curve] | –
COC(=O)c1ccc(CN2C(=O)NC(c3ccccc3)(c3ccccc3)C2=O)o1 | inconclusive [inhibitor, single point] | –
COc1ccc(CN2CCN(Cc3ccc(C)cc3)CC2)c(OC)c1 | – | inconclusive: -31.8% [inhibitor]
COc1ccc(S(=O)(=O)N(C)CC(=O)NCc2ccco2)cc1OC | – | inactive: -9.71%
CCCCNc1c(-c2ccc(SC3CCCCC3)cc2)nc2ccccn12 | active: 23.1 µM | –
CC1CCN(C(=S)c2cn(Cc3ccc(F)cc3)c3ccccc23)CC1 | active: 23.1 µM | –
CCN(CCCNC(=O)c1ccc(Sc2ccc(C)cc2)c(NC(C)=O)c1)c1cccc(C)c1 | inconclusive [inhibitor, single point] | –
Cc1[nH]c2ccccc2c1C(=O)CSc1ccc(Cl)cc1 | inconclusive [inhibitor, single point] | –
NS(=O)(=O)c1ccc(CCNC(=O)CN2CCN(c3cccc(Cl)c3)CC2)cc1 | active: 16.4 µM | –
COc1ccc(CNC(=O)COC(=O)c2cc(C)oc2C)cc1 | – | inactive: -20.9%
COc1ccc(-n2c(=O)c3c(c4cc(OC)ccc4n3C)n(CC(=O)NCC3CCCO3)c2=O)cc1 (configuration not stated) | inconclusive [inhibitor, partial curve] | –
CCCCCCCCN1C(=O)[C@H](CC(=O)N2CCN(C(=O)c3ccco3)CC2)C[C@@]2(C(=O)OC)CCCCC=C12 | active: 23.1 µM | –

SMILES | Potency | activity change, negative = growth inhibition
Cc1cccc(C)c1NC(=O)Nc1ccc2c(c1)OCO2 | inconclusive [inhibitor, single point] | –
Cc1cc(=O)[nH]c(Nc2ccc(C(=O)OC(C)C)cc2)n1 | inconclusive [inhibitor, single point] | –
CN(C)CCCN(C(=O)c1ccc(Cl)s1)c1nc2cc3c(cc2s1)OCO3 | inconclusive [inhibitor, single point] | –
Cc1ccn2cc(-c3nonc3C)cc2c1 | – | inactive: -17.3%
Cn1c(=O)[nH]c(=O)c2c1nc(N(CCO)Cc1ccccc1)n2Cc1ccccc1Cl | – | inconclusive: -34.8% [inhibitor]
COc1ccccc1C(=O)NC(=O)COC(=O)c1nc(Cl)ccc1Cl | – | inactive: -2.02%
COc1ccc(OC)c(CN2CCN(C(=O)c3cc(S(=O)(=O)N4CCOCC4)ccc3C)CC2)c1 | – | inactive: -9.72%
Clc1ncc(Cn2cccn2)s1 | – | inactive: 14.4%
O=C(NC1CCCCC1)C(c1ccc(F)cc1)N(Cc1ccco1)C(=O)c1csnn1 (configuration not stated) | inconclusive [inhibitor, single point] | –
CCCCC1(C)Cc2ccccc2C(=S)N1 (configuration not stated) | inconclusive [inhibitor, single point] | –
C#CCN(C[C@@H]1[C@@H](OC(=O)NCc2ccco2)[C@@H](OC(=O)NCc2ccco2)Cn2c(=O)ccc(=O)n21)S(=O)(=O)c1ccc(C)cc1 | active: 4.61 µM | –
Nc1nc(Cn2nnc(-c3ccccc3Cl)n2)nc(N2CCOCC2)n1 | inconclusive [inhibitor, partial curve, poor fit] | –
O=C(O)c1c[nH]c(=S)n1-c1ccc(F)cc1 | – | inactive: 2.88%
O=c1[nH]c2cc3c(cc2cc1CN(CC1CCCO1)S(=O)(=O)c1ccc(Cl)cc1)OCCO3 (configuration not stated) | inconclusive [inhibitor, single point] | –
Cc1ccc(C)c(OCC(=O)O/N=C(\N)c2cccc([N+](=O)[O-])c2)c1 | inconclusive [inhibitor, single point] | –
CCOC(=O)c1c(NC(=O)c2ccccc2Cl)sc2c1CCc1ccccc1-2 | inconclusive [inhibitor, single point] | –
O=C(C[n+]1ccccc1Cl)c1ccc2ccccc2c1 | inconclusive [inhibitor, single point] | –
COc1ccc(C2c3c(-c4ccccc4O)n[nH]c3C(=O)N2Cc2ccco2)cc1OC (configuration not stated) | – | inactive: -20.3%
CC(=O)Nc1sc(N/N=C/c2ccccc2F)nc1-c1ccc(C)cc1 | inconclusive [inhibitor, single point] | –
CC1CCCN(C(=S)Nc2ccc(Nc3ccccc3)cc2)C1 (configuration not stated) | active: 9.2 µM | –
COc1ccc(NC(=O)Cn2c(=O)n(-c3cccc(C)c3)c(=O)c3c2c2cc(C)ccc2n3C)cc1OC | inconclusive [inhibitor, partial curve] | –
COc1ccc(C(=O)N(CCc2ccccc2)Cc2ccccc2)c(OC)n1 | inconclusive [inhibitor, single point] | –
O=C(N/N=C/c1cn(Cc2ccccc2)c2ccccc12)c1ccncc1 | inconclusive [inhibitor, partial curve] | –
CC(=O)NC(=S)Nc1ccc2oc(=O)ccc2c1 | – | inactive: -1.32%

SMILES | Potency | activity change, negative = growth inhibition
CCn1c(C)nnc1SCC(=O)Nc1ccc(Cl)cc1 | – | inactive: 0.627%
C#CCSc1nc2sc3c(c2c(=O)n1-c1cccc(OC)c1)CCN(C(C)=O)C3 | inconclusive [inhibitor, single point] | –
O=C(NC1CC1)c1cc2cc3ccccc3nc2s1 | inconclusive [inhibitor, single point] | –
O=[n+]1c2c(n([O-])c3cc(F)c(N4CCCC4)cc31)CCC2 | – | inactive: -29.2%
CC(C)NC(=S)N/N=C/C1=CCC2CC1C2(C)C (configuration not stated) | inconclusive [inhibitor, single point] | –
CCc1nn2c(-c3ccco3)ccnc2c1-c1ccc(F)cc1 | inconclusive [inhibitor, single point] | –
COc1ccc(Br)c(Cn2c(C)c(C(=O)NCCC#N)sc2=O)c1 | – | inactive: -23.6%
Cc1ccc(S(=O)(=O)N2CCCC2CNC(=O)c2ccc3c(c2)OCO3)cc1 (configuration not stated) | active: 18.4 µM | –
CCCCN(C(=O)c1cc(S(=O)(=O)N2CCCCCC2)ccc1OC)c1ccccc1 | inconclusive [inhibitor, single point] | –
CC(=O)c1cccc(NC(=O)N2CCC(c3ccc(C)cc3)C2)c1 (configuration not stated) | inconclusive [inhibitor, single point] | –
CCn1c(/C=C/c2ccc([N+](=O)[O-])o2)nc2ccccc2c1=O | active: 2.59 µM | –
COc1cc(CNC2CCCC2)cc(Cl)c1OCc1ccc(F)cc1 | active: 14.6 µM | –
O=C(C1CCCC1)N1CCN=C1SCc1cccc([N+](=O)[O-])c1 | inconclusive [inhibitor, single point] | –
COc1cccc2cc(C(C)N(CCCN3CCOCC3)C(=S)Nc3cccc(C)c3C)oc12 (configuration not stated) | – | inactive: -7.25%
CN(C)/C=C/C(=O)c1ccc2noc(-c3ccc(F)cc3)c2c1 | inconclusive [inhibitor, partial curve, poor fit] | –
CN(CCO)c1nc(-c2cccs2)nc2ccccc12 | inconclusive [inhibitor, single point] | –
NC(=O)CC(NC(=O)Cc1ccc(Br)cc1)c1ccc(N2CCC(Cc3ccccc3)CC2)c([N+](=O)[O-])c1 (configuration not stated) | active: 23.1 µM | –
COc1ccc(CCN(C)C(=O)CNC(=O)c2ccc3c(c2)OCO3)cc1OC | – | inactive: -3.28%
O=C(CCC(=O)N1CCN(c2ccccc2F)CC1)c1ccc(F)cc1 | inconclusive [inhibitor, single point] | –
O=C(CN1C(=O)S/C(=C\C=C\c2ccccc2)C1=O)Nc1ccc(C(=O)O)cc1 | – | inactive: -2.59%
Cc1ccccc1OCC(=O)Nc1nnc(C2CC2)s1 | inconclusive [inhibitor, single point] | –
CS(=O)(=O)c1cccc(NC(=O)c2ccc(Cl)c(Cl)c2)c1 | inconclusive [inhibitor, single point] | –
CN(C)c1nc(OCCNC(=O)Nc2ccccc2)nc(N2CCCCC2)n1 | – | inactive: -15.5%
O=C(/C=C/c1ccccc1)N(Cc1ccc(Cl)cc1)C1CCS(=O)(=O)C1 (configuration not stated) | inconclusive [inhibitor, single point] | –
